“And” between values parts separate entries of the source, which are not always exact repeats. Identical values can stand only once. Hit rate of the full screen: of about 48,000 compounds, about 1,200 (2.5%) were called active. Roughly 2% stayed inconclusive and do not appear here.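 Rule for the calls: active = activation of at least 60% and not above a set upper limit (about 1 call in 100 departs from these limits); inconclusive = activation of 40% to 60%, or above that upper limit; inactive = activation under 40%.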 The list shows a part of the results.
biological target: Probable G-protein coupled receptor 32 (Homo sapiens) (UniProt O75388); assay: qHTS for Agonists of Human Resolvin D1 Receptor DRV1; conditions: CHO-K1 GPR32 beta-arrestin PathHunter luminescence, 90 min; at 76.9 µM; stronger effect = higher value; zero percent set by DMSO-only wells; note: 0% is about no effect
Procedure, shortened: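 Using DMSO wells as EC0, agonist-induced signal was taken as chemiluminescence from beta-Gal reconstituted upon beta-arrestin recruitment to GPR32 in CHO-K1 cells after 90 min compound treatment.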

Chain of UniProt O75388 (O75388 whole entry, looked up): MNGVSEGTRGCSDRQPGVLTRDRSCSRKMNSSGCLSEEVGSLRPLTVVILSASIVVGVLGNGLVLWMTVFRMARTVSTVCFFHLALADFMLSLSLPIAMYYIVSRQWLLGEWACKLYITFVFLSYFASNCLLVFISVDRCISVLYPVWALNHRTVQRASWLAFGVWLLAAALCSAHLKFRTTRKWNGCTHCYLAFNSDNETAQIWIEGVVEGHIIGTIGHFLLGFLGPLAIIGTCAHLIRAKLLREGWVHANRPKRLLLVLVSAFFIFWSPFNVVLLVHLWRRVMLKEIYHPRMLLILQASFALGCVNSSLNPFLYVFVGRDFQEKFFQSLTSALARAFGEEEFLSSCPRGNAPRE

activation, active:
Cc1ccc(S(=O)(=O)NCCc2csc3nc(-c4ccccc4C)nn23)cc1 79.7%

activation, inactive:
COc1ccccc1-c1nnc(C2CCN(C(=O)c3ccc(Cl)cc3)CC2)o1 -8.57%, COc1ccc(NC(=O)Cc2noc3ccc(C)cc23)cc1Cl 7.58%, CCc1cccc(C)c1NC(=O)CCn1nc(C)c2c(C)n(-c3ccccc3)nc2c1=O -4.71%, CCOc1ccccc1O[C@H](c1ccccc1)[C@H]1CNCCO1 -20.3%, CC1=C(C(=O)Nc2cccc(C(F)(F)F)c2)C(c2ccccc2)n2ncnc2N1 (centres undefined) 6.68%, COc1ccc(NC(=O)Cn2c(=O)n(-c3ccc(C)c(C)c3)c(=O)c3c(C)c(C)sc32)cc1 -3.01%, COc1cccc(N2CC(NC(=O)C3CC3)CC2=O)c1 (centres undefined) -3.78%, COc1ccc(N2CCN(c3cc(C)nc4nncn34)CC2)cc1 10.9%, Cc1ccc(C)c(N2CCN(c3nc4c(S(=O)(=O)c5ccccc5)nnn4c4ccc(Cl)cc34)CC2)c1 -1.01%, CCOc1ccc2c(c1)c(=O)c(C(=O)c1ccc(CC)cc1)cn2CC(=O)Nc1ccccc1C 30%, Cc1ccc(CCNC(=O)c2ccc(NC(=O)N3CCSc4ccccc43)cc2)cc1 -19.5%, Cc1ccc(NC(=O)Cn2nnc(C(=O)NCCc3ccccc3)c2N)cc1Cl -7.27%, COCC(=O)N1c2nc(-c3ccco3)nn2C2(CCCCC2)[C@@H]2CCCC[C@@H]21 -13.9%, CCc1ccc2c(c1)c(=O)c(S(=O)(=O)c1ccccc1)cn2CC(=O)Nc1ccc(OC)cc1 -15.4%, CCCN(C(=O)c1cc2c(=O)oc3ccccc3c2s1)c1ccccc1C -0.559%, CCC(C)NC(=O)Cn1c(=O)ccc2cc(S(=O)(=O)N3CCCC3)ccc21 (centres undefined) 17.7%, CCOC(=O)c1c(S(=O)(=O)N2CCC(C(=O)Nc3cccc(C)n3)CC2)c(C)n(C)c1C 3.83%, COc1ccc(NC(=O)CN2C(=O)C3(SCC(=O)N3c3cccc(OC)c3)c3ccccc32)cc1 (centres undefined) -11.2%, CCOc1cc(CNC(=O)c2ccc3nc(CCc4ccccc4)oc3c2)ccc1OC -7.02%, O=C(CSc1nc2ccsc2c(=O)n1Cc1ccccc1Cl)NCc1ccc(Cl)cc1 16.3%, O=C(CSc1nc2ccccc2n1Cc1c(F)cccc1Cl)N1CCN(c2ccc(F)cc2)CC1 -6.01%, Cc1ccc(CNC(=O)C(C)n2ccc3cc(S(=O)(=O)N4CCCC4)ccc32)cc1 (centres undefined) -4.29%, O=C(c1ccc2c(Cl)c3c(nc2c1)CCCC3)N1CCN(c2ccccc2F)CC1 -10.1%, O=C(Nc1nnc(SCc2cc(=O)n3cc(Cl)ccc3n2)s1)c1cccc(F)c1 -2.5%, CC(C)(C)[C@]1(O)CCN2C[C@H]3c4ccccc4CCc4cccc(c43)[C@@H]2C1 -25.6% and -25%, CCOc1ccc(N2CC(c3nc4ccccc4n3CCOc3ccc(CC)cc3)CC2=O)cc1 (centres undefined) 5.31%, COc1cccc(C2=CC(c3ccccc3F)n3c(nc4ccccc43)N2)c1 (centres undefined) -26.6%, COc1ccc(N2CC(NC(=O)c3c(F)cccc3Cl)CC2=O)cc1OC (centres undefined) 1.04%, Nc1nc2[nH]c(=O)cnc2c(=O)[nH]1 -11.1%, Cc1ccccc1NC(=O)c1cnc2sc(N3CCCC3)nn2c1=O 2.69%, CCC(C(=O)N1CCN(c2ccccc2)CC1)n1nc(C)c2sc3ccccc3c2c1=O (centres undefined) -15.7%, CC1Cc2ccccc2N1NC(=O)c1ccc(Cl)c(S(N)(=O)=O)c1 (centres undefined) -0.0065%, Cc1nc2ccccc2n1CCc1nc2c3ccccc3nc(SCc3ccc(F)cc3)n2n1 5.74%, CCCCN(C)C(=O)Cn1c(SCC(=O)Nc2ccc(C)c(C)c2)nc2ccccc21 10.3%, CCOC(=O)C1(C)C=C(Nc2ccc(C(=O)O)cc2)C(=O)N1c1ccc(C(=O)O)cc1 (centres undefined) -4.81%, COc1ccc2c(c1)c1c(c(=O)n(-c3ccccc3C)c(=O)n1Cc1c(F)cccc1Cl)n2C -2.38%, Cc1cccc(Nc2c3c(nc4nncn24)CCC3)c1C -0.944%, COc1ccccc1N1CCN(CC(O)COc2ccc(C)cc2C(C)(C)C)CC1 (centres undefined) 6.03%, CCOC(=O)c1c(C)oc2nc(C)nc(NCC3CCN(Cc4cccc(Cl)c4)CC3)c12 2.72%, CCOC(=O)C1CCCN(C(=O)Cn2nc(CC)n3c(cc4occc43)c2=O)C1 (centres undefined) 6.98%, Cc1cccc(NC(=O)C2CCCN(c3nc4ccccc4s3)C2)c1C (centres undefined) -3.47%, Cc1ccc(C)c(N2CCN(CCCNC(=O)Nc3ccc(Cl)cc3)CC2)c1 37.2%, Cc1ccc(NC(=O)CCNS(=O)(=O)c2ccc3c(c2)CCCC(=O)N3)cc1 1.1%, COc1cccc2cc(-c3nc(-c4ccc(C)cc4)c(C)s3)c(=O)oc12 -9.41%, Cc1ccc(C(=O)Nc2ccc3nc(N4CCCCC4)cc(C)c3c2)cc1F 30%, CCOc1ccccc1NC(=O)CN1C=NS(=O)(=O)c2ccccc21 4.8%, Cc1ccc(CCNC(=O)c2ccc(CS(=O)(=O)Cc3ccccc3F)o2)cc1 47.9%, O=S(=O)(Nc1ccc(Cl)cc1)c1cccc(S(=O)(=O)c2ccc(Cl)c(Cl)c2)c1 48.9%, Cc1cc(Nc2ccc(F)cc2)nc(-n2nc(C)cc2C)n1 -17%, CC(=O)c1ccc(N2C(=O)N(Cc3cc(C)ccc3C)c3ccccc3S2(=O)=O)cc1 -11.2%, CCOc1ccccc1NC(=O)c1c(NC(=O)C(C)Oc2ccc(Cl)cc2)sc2c1CCCCC2 (centres undefined) -9.01%, Cc1ccc(NS(=O)(=O)c2ccc3c(c2)CC(C)N3C(=O)C2CCC2)cc1Cl (centres undefined) -6.92%, COc1cc(Cl)c(C)cc1NC(=O)c1cc2c(Cl)nc3ccc(C)cc3c2s1 -5.28%

From PubChem BioAssay AID1346428 (National Center for Advancing Translational Sciences (NCATS), 2018)
